Source: PubChem BioAssay AID1460 (National Center for Advancing Translational Sciences (NCATS), 2008)
“And” between values parts separate entries of the source, which are not always exact repeats. Equal entries are not always repeated. About 5,800 (2.1%) of roughly 270,000 compounds were called active. Inconclusive means that the source gave no clear call. Such entries were picked first, then a sample of the others. Calls come from the whole dose curve; as a rule, active = well fitted inhibition curve with a large enough effect; inconclusive = small, poorly fitted or top-dose-only effect; inactive = flat fitted curve, though single readings scatter. Where the call is inconclusive, the potency comes from a doubtful curve fit.

target: Microtubule-associated protein tau (Homo sapiens) (UniProt P10636); assay: qHTS for Inhibitors of Tau Fibril Formation, Thioflavin T Binding; conditions: recombinant tau K18 P301L (four-repeat tau fragment), heparin-induced fibrillization, ThT fluorescence; series mostly up to 57.4 µM; activity, negative = inhibition: at the top concentration; note: nearly all actives have a fitted effect of over 55% in size
Method in brief: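 Heparin-induced (20 uM) aggregation of recombinant human K18 P301L tau, 15 uM unlabeled with 0.24 uM labeled, pH 7 acetate buffer, 6 hr at 37 C with compound. Fibrils quantified by 30 uM ThT fluorescence after 1 hr ambient incubation.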
% is set by controls: 0 for no effect and ±100 for the full control effect; potency is the fitted concentration of half-maximal effect; tags give direction and shape of the fitted curve.

UniProt P10636, sequence (P10636 whole entry, looked up, the tested form may be a part): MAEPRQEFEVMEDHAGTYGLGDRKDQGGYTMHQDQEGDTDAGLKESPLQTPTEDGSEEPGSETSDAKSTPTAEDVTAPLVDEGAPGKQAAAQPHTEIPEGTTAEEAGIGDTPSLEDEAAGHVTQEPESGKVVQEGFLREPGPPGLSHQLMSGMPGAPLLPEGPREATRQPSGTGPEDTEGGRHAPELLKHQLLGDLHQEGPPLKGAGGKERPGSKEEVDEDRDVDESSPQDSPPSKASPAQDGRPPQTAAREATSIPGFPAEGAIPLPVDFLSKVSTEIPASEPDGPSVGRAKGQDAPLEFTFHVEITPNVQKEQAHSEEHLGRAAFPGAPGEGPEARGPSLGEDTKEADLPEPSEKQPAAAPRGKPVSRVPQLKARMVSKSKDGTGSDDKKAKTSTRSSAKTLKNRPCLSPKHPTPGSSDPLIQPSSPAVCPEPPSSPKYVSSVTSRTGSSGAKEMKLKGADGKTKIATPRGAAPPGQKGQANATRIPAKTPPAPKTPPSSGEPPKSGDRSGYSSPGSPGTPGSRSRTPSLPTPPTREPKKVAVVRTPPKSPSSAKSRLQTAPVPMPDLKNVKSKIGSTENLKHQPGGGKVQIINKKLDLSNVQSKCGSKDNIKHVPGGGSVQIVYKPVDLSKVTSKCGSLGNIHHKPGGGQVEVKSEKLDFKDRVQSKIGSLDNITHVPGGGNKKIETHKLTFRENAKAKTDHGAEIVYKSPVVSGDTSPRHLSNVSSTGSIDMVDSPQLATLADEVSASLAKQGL

Row | Compound | Potency | activity, negative = inhibition
1 | Cc1cc(C)c2nc(N3CCC(C(=O)NCc4cccnc4)CC3)sc2c1 | inconclusive: 14.1 µM [inhibitor, partial curve] | –
2 | O=C1CCCC(O)=C1N=Nc1c(Cl)cc(C(F)(F)F)cc1Cl | inconclusive: 31.6 µM [inhibitor, partial curve, poor fit] | –
3 | COCCCN1CN(S(=O)(=O)c2ccc(Cl)cc2)c2nc3ccccc3nc21 | inconclusive: 39.8 µM [inhibitor, partial curve] | –
4 | N#C/C(=C/c1ccc(N2CCCCC2)o1)C(=O)Nc1ccc2ccccc2c1 | active: 12.6 µM | –
5 | C=C1c2ccccc2O[C@H](C(=O)OCC)[C@@H]1C1CCCCC1 (tested in a mixture with another compound) | inconclusive: 31.6 µM [inhibitor, partial curve] | –
6 | CC(C)COCC1CC2(CC(C)C(=O)CC2=O)C(=O)O1 (stereo not drawn) | inconclusive: 20 µM [inhibitor, single point] | –
7 | COc1ccc(/C=C/C(=O)NC(=S)Nc2ccc(N3CCN(C(C)=O)CC3)cc2)cc1 | inconclusive: 1.26 µM [inhibitor, full curve] | –
8 | CCCOc1cccc(C2c3c(oc4ccc(F)cc4c3=O)C(=O)N2CCCN2CCOCC2)c1 (stereo not drawn) | – | inactive: 1.71%
9 | Cc1ccc(CN(Cc2ccco2)C(=O)c2ccccc2Br)o1 | inconclusive: 25.1 µM [inhibitor, single point] | –
10 | Cc1csc(NC(=O)CSc2nc3ccccc3s2)n1 | – | inactive: -7.45%
11 | CO/N=C(/C(=O)NC1C(=O)N2C(C(=O)O)=C(CSc3nc(=O)c(O)nn3C)CSC12)c1csc(N)n1 (stereo not drawn) | inconclusive: 28.2 µM [inhibitor, partial curve] and inconclusive: 15.8 µM [inhibitor, partial curve] | –
12 | Cc1ccc(NC(=O)c2ccc3ccccc3n2)nc1 | inconclusive: 11.2 µM [inhibitor, partial curve] | –
13 | O=C(CN1C(=O)C2CCCCC2C1=O)N1CCN(c2ccc(F)cc2)CC1 (stereo not drawn) | – | inactive: -3.13%
14 | Cc1ccc(S(=O)(=O)c2nnn3c2nc(NC2CCCCCC2)c2sccc23)cc1C | – | inactive: -2.87%
15 | COc1cc(NC(=O)Nc2ccccc2OC)c(OC)cc1NC(=O)CN1CCCCC1 | inconclusive: 25.1 µM [inhibitor, partial curve] | –
16 | O=C(NC(=S)Nc1ccccc1Cl)c1csnn1 | active: 15.8 µM | –
17 | O=C(CCCC(=O)N1CCc2ccccc21)N1CCc2ccccc21 | inconclusive: 0.631 µM [inhibitor, full curve, poor fit] | –
18 | O=c1c2cnn(-c3ccc(F)cc3)c2ncn1Cc1ccccc1Cl | – | inactive: 12.5%
